About 540 (0.36%) of roughly 150,000 compounds showed an effect of 50% or more. The list shows a part of the results.

This experiment relates to Plasmodium falciparum. Description: Primary screen in NF54 nanoGlo assay, in single point, at 2uM, 72h; a lower Z score goes with more inhibition. The experiment is classed as functional, Erythrocyte. The conditions noted are these: timepoint 72 hour.
A word on the % Inhibition: it is the relative decrease from the control value, in per cent. Regarding `Cc1nn(C)c(C)c1-c1cc(C(=O)NCCc2c[nH]cn2)n(C)n1`, the “% Inhibition” value was -3% and the Z score is recorded as 0.65.
For `Cc1ccc(Cn2c(=O)c(C(=O)NC[C@H]3CCCO3)nn(-c3ccc(F)cc3)c2=O)cc1`, in that order: -11% and 1.92.
The corresponding values for `CCC1CC(C(=O)N2CCC(C)(C(N)=O)C2)CC(=O)N1` (stereo unspecified) are -5% and 0.61.
For `O=C(c1ccncc1Cl)N(c1ccc(F)cn1)C1CCOCC1`, in that order: -12% and 1.56.
Regarding `Nc1nccnc1C(=O)NC1CCCC1`, the “% Inhibition” value is given as -16% and the Z score came out at 2.23.
The corresponding values for `Cn1ccnc1-c1c(-c2ccccc2)ncn1CC(=O)N1CCNCC1` are -9% and 1.78.
The corresponding values for `C#CCNC(=O)N1CCC(C2(C)OCCO2)CC1` are -9% and 1.58.
For `CCCS(=O)(=O)NC1CCN(Cc2ncc(-c3ccccc3)s2)CC1`, in that order: -5% and 0.61.
With `C[C@@H]1CNCCN1S(=O)(=O)c1ccccc1`, the “% Inhibition” value is reported as -7% and the Z score was found to be 0.97.
Turning to `COc1ccc(OC)c([C@H](C)NC(=O)c2ccc(CN3CCOCC3)cc2)c1`, the “% Inhibition” value is recorded as -9% and the Z score was determined as 1.7.
The corresponding values for `CCCS(=O)(=O)N[C@@H](C)c1nc(C)c[nH]1` are 11% and -1.47.
With `O=C(NCc1ccccc1)c1[nH]cnc1C(=O)N1CCCCC1`, the “% Inhibition” value worked out at 11% and the Z score is on record as -1.23.
For `CCn1ccc(C(=O)N2CC[C@H]3C(=O)N(Cc4cccc(C)c4)CC(=O)N3CC2)n1`, in that order: -10% and 1.36.
Take `C[C@@H](CCNc1ccc(C#N)nn1)NC(=O)OC(C)(C)C`: the “% Inhibition” value is -7% and the Z score is 1.31.
With `CC(C)(c1nc(C2(c3ccncc3)CCC2)no1)S(=O)(=O)C1CC1`, the “% Inhibition” value was -4% and the Z score was 0.5.
For `Cn1nccc1-c1cccc(-c2nc(N3CCCCC3)n(C)n2)c1`, in that order: -4% and 0.64.
For `COc1ncccc1C(=O)NCc1cccnc1-n1cnc2ccccc21`, in that order: 1% and -0.24.
For `CC(C)n1ccnc1CNC(=O)Cc1cccnc1`, in that order: 0% and 0.07.
On to `Cc1ccc(-c2ocnc2C(=O)Nc2nc3ccccc3s2)o1`, for which the “% Inhibition” value is reported as -21% and the Z score came to 2.05.
On to `CCc1nc(C)c(-c2nc3ccc(C(=O)O)cc3[nH]2)[nH]1`, for which the “% Inhibition” value is -6% and the Z score is 0.84.
For `Cc1nn(C(C)(C)C)c2nc(C3CC3)cc(C(=O)N(C)Cc3cccc(C#N)c3)c12`, the “% Inhibition” value was -7% and the Z score is listed as 1.44.
Regarding `Cc1cccc(-c2ncc(C(=O)N(C)Cc3ccccc3CN(C)C)c(O)n2)c1`, the “% Inhibition” value worked out at 8% and the Z score is -0.93.
On to `Cc1cc(C)cc(OCC(=O)N(Cc2ccc(F)cc2)[C@H]2CCS(=O)(=O)C2)c1`, for which the “% Inhibition” value is reported as -7% and the Z score was determined as 0.6.
As for `CCc1nc2ccccc2n1[C@@H](CC)C(=O)NCc1c(C)n[nH]c1C`, the “% Inhibition” value turned out to be 3% and the Z score is reported as -0.5.
For `Cc1noc(C)c1S(=O)(=O)NC[C@@H](c1cccn1C)N(C)C`, in that order: -11% and 1.62.
For `CC(C)Cc1ccc(CN2CCCC[C@H](NS(=O)(=O)C3CC3)C2)s1`, in that order: 3% and -0.45.
As for `CCCC(=O)N1CCC[C@H]1C(=O)N1CCC(c2nccc(C)n2)CC1`, the “% Inhibition” value is on record as -10% and the Z score was determined as 1.37.
For `CC(C)OCCS(=O)(=O)NC1CCC(C(F)(F)F)CC1` (stereo unspecified), in that order: -22% and 3.14.
For `O=C(C[C@@H](CN1Cc2ccccc2C1=O)c1ccc(Cl)cc1)N1CCCCCC1`, in that order: -16% and 2.01.
On to `CC(C)S(=O)(=O)NC1=NCN(CCN2CCOCC2)CN1`, for which the “% Inhibition” value is given as -11% and the Z score turned out to be 1.42.
For the molecule `CN(C(=O)Nc1ccccc1OCCCc1ccccc1)C1CCOCC1`, the “% Inhibition” value is recorded as -11% and the Z score amounted to 2.19.
For `COc1ccc(NC(=O)CN2CCN(C(C)=O)CC2)cc1S(=O)(=O)N1CCCCC1`, in that order: 1% and -0.21.
As for `O=C1CC[C@@]2(CCN(C(=O)CCCc3ccccc3)C2)N1`, the “% Inhibition” value is on record as -4% and the Z score stood at 0.59.
On to `CNc1ncccc1C(=O)NC(c1ccc2c(c1)CCO2)[C@H]1C[C@@H](O)C1` (stereo partly specified), for which the “% Inhibition” value was -16% and the Z score turned out to be 3.01.
For `Cc1ccc(NC(=O)Cn2c(C)ncc(C(=O)NC3CCCC3)c2=O)c(C)c1`, in that order: 9% and -1.4.
Consider `O=C(Cc1c[nH]c2ccccc12)N1CCC(F)(C(=O)NCc2ccccc2)CC1`, for which the “% Inhibition” value was determined as 0% and the Z score is on record as 0.
Take `CCCS(=O)(=O)Nc1scnc1CC`: the “% Inhibition” value was -8% and the Z score was 1.22.
For `O=C(NCCc1ccccc1)c1nc(Cn2nc(-c3ccccc3)ccc2=O)no1`, in that order: -7% and 0.81.
Turning to `CC1(C)CC(=O)c2sc3nc(-c4ccc(Cl)cc4)cn3c2C1`, the “% Inhibition” value was -10% and the Z score was determined as 1.75.
For `O=C(CC1(C(F)(F)F)CC1)N1CC[C@H](CN2CCOC2=O)C1`, in that order: -9% and 1.09.
The corresponding values for `O=C(c1ccoc1)N(c1ccccc1)C1CCCCC1` are -16% and 1.72.
For `CS(=O)(=O)N1CCc2[nH]cnc2C12CCN(C(=O)CCC1CC1)CC2`, in that order: -4% and 0.68.
In the case of `CCc1cc([C@H](C)NC(=O)c2cc(-c3ccccc3)on2)on1`, the “% Inhibition” value came to 4% and the Z score is reported as -0.71.
